Earlier results in US20060024344A1 (priority 2004, published 2006).

Details: cooking, or freezing

COc1cc(CNC(=O)CCCC/C=C/C(C)C)ccc1O [capsaicin, 8-methyl-n-vanillyl-6-nonenamide]
stability to cold or heat: seemingly unaffected by cold or heat
